This is one part of the list. Sequences were assembled here from the parent chain. Inactive controls read about 0.05.
B1: TEV protease; numbered along this chain (parent)
chain: MGESLFKGPRDYNPISSSICHLTNESDGHTTSLYGIGFGPFIITNKHLFRRNNGTLVVQSLHGVFKVKDTTTLQQHLVDGRDMIIIRMPKDFPPFPQKLKFREPQREERICLVTTNFQTKSMSSMVSDTSCTFPSGDGIFWKHWIQTKDGQCGSPLVSTRDGFIVGIHSASNFTNTNNYFTSVPKNFMELLTNQEAQQWVSGWRLNADSVLWGGHKVFMVKPEEPFQPVKEATQL

Variants of: B1
Assay: raw area under fraction-flipped curve 0-4 h after induction (AUC4h, not background-subtracted), DNA-recorder readout of cleavage of the substrate (dimensionless); higher = more cleavage of the substrate by the protease variant
Conditions: temperature: 34 °C; time window: 0-4 h after rhamnose induction
Method: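 In vivo DNA recorder in E. coli TOP10(DE3) ΔrhaA at 34 °C. Each TEVp single-site mutant (parent TEVp 0) is paired with a single-site variant of the 7-mer TEVs (canonical ENLYFQ|S). The substrate sits between flexible linkers in a Bxb1-sfGFP-TEVs-SsrA fusion, so cleavage stabilises Bxb1 and speeds flipping of a recombination array, read by NGS. The value is the raw area under the fraction-flipped curve over 0-4 h after rhamnose induction (AUC4h), with ≥20 reads per time point. It is not background-subtracted; inactive controls average about 0.047.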
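Further: Bxb1 expression induced with 0.2% (w/v) L-rhamnose at OD600 near 0.5, cultures sampled hourly, flipped fraction per protease–substrate barcode pair counted by paired-end Illumina sequencing.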

Row | Variant | area with substrate ENLYFAS | area with substrate ENLYFCS | area with substrate ENLYFDS | area with substrate ENLYFES | area with substrate ENLYFFS | area with substrate ENLYFHS | area with substrate ENLYFIS | area with substrate ENLYFMS | area with substrate ENLYFNS | area with substrate ENLYFPS | area with substrate ENLYFRS | area with substrate ENLYFTS | area with substrate ENLYFVS | area with substrate ENLYFWS | area with substrate ENLYFYS | area with substrate ENLYFGS | area with substrate ENLYFKS | area with substrate ENLYFSS | area with substrate ENLYFLS
1 | E3H | 0.0593 | 0.0594 | 0.056 | 0.0655 | 0.0625 | 0.0668 | 0.0528 | 0.073 | 0.0645 | 0.0604 | 0.0625 | 0.0622 | 0.0544 | 0.0488 | 0.0548 | – | – | – | –
2 | E3Q | 0.0642 | 0.0622 | – | 0.0671 | 0.0636 | – | 0.0626 | 0.0775 | 0.0599 | – | – | 0.0396 | 0.0883 | 0.0499 | 0.062 | 0.061 | 0.064 | – | –
3 | S4C | 0.0643 | 0.0629 | 0.0734 | 0.0895 | 0.0635 | 0.0694 | 0.0654 | 0.0966 | 0.0756 | 0.0687 | 0.0602 | 0.0597 | – | 0.0663 | 0.0607 | – | 0.0981 | 0.0152 | –
4 | S4H | 0.0589 | 0.0532 | 0.0394 | 0.0654 | 0.0557 | 0.0528 | – | 0.0695 | 0.0754 | 0.0435 | 0.071 | 0.0518 | 0.0562 | 0.033 | 0.0535 | – | 0.0626 | 0.0468 | 0.028
5 | K7D | 0.0659 | 0.0658 | – | 0.073 | – | 0.0447 | 0.0559 | 0.0687 | 0.0939 | 0.0508 | 0.0648 | 0.0588 | – | – | – | 0.0555 | 0.0613 | – | 0.062
6 | P9F | 0.0588 | 0.0545 | – | 0.0588 | 0.0782 | 0.059 | 0.0653 | 0.0705 | 0.0646 | 0.0596 | – | 0.0631 | 0.0611 | 0.0545 | 0.0617 | – | – | 0.055 | 0.061
7 | P9L | 0.0446 | 0.0693 | 0.0517 | 0.0567 | 0.0595 | – | 0.0542 | 0.074 | 0.0774 | 0.053 | 0.0501 | – | 0.0487 | 0.0499 | 0.0792 | – | 0.0581 | – | –
8 | D11V | 0.0645 | – | 0.0462 | 0.0673 | 0.0746 | 0.0577 | 0.0542 | 0.062 | – | 0.0651 | 0.0665 | 0.0654 | 0.0541 | 0.056 | – | 0.0625 | 0.0705 | 0.0533 | –
9 | Y12L | 0.0621 | 0.0585 | 0.0625 | 0.0467 | 0.0646 | 0.0628 | 0.059 | 0.0717 | 0.0632 | 0.0531 | 0.0675 | 0.0546 | 0.0714 | 0.0491 | 0.0565 | 0.0521 | 0.0546 | 0.0288 | 0.0592
10 | N13E | 0.058 | 0.0605 | 0.0602 | 0.0569 | 0.0511 | 0.0615 | 0.0548 | 0.0638 | 0.0715 | 0.0609 | – | 0.0357 | 0.0598 | – | 0.0631 | 0.0604 | 0.0549 | 0.0456 | –
11 | N13I | 0.065 | 0.0672 | 0.06 | 0.0608 | 0.0553 | 0.0654 | 0.0564 | 0.0645 | – | 0.0568 | 0.0292 | 0.0571 | – | 0.0555 | 0.0499 | 0.0586 | 0.0665 | – | 0.0637
12 | N13L | 0.0584 | 0.059 | 0.0679 | 0.067 | 0.0631 | 0.0606 | 0.0603 | 0.0694 | 0.0798 | 0.0621 | 0.0575 | 0.0608 | 0.0478 | – | 0.0547 | 0.0476 | 0.0625 | – | 0.0464
13 | N13P | 0.0593 | 0.09 | – | 0.0625 | 0.0684 | 0.0629 | 0.0546 | 0.0686 | 0.0693 | 0.0598 | 0.0623 | 0.057 | – | 0.059 | 0.0472 | – | 0.0667 | 0.0645 | 0.0506
14 | P14A | 0.0557 | – | 0.0718 | 0.0599 | 0.0603 | 0.0679 | 0.0593 | 0.0595 | 0.0595 | 0.087 | – | 0.0697 | 0.0576 | 0.0576 | 0.0649 | 0.0607 | 0.0676 | – | –
15 | P14M | 0.0709 | 0.0844 | 0.0609 | 0.0552 | 0.0704 | 0.0591 | 0.0617 | 0.0569 | 0.0642 | 0.059 | 0.0499 | 0.0657 | 0.0472 | 0.0539 | – | 0.0597 | 0.0632 | 0.0569 | 0.0521
16 | P14T | 0.0547 | 0.0645 | – | 0.0684 | 0.063 | 0.0613 | 0.0569 | 0.0667 | 0.0613 | 0.0623 | 0.065 | 0.0596 | 0.0563 | 0.0619 | – | – | 0.0609 | 0.0633 | 0.0621
17 | I15D | 0.0454 | – | 0.0497 | 0.0503 | 0.0628 | 0.0594 | 0.0449 | 0.058 | 0.0373 | 0.0524 | 0.0601 | 0.0436 | 0.0456 | 0.0481 | 0.0439 | 0.0406 | 0.0352 | 0.044 | 0.0438
18 | I15E | 0.0453 | 0.0416 | 0.0576 | 0.0601 | 0.0627 | 0.0492 | 0.0529 | 0.0607 | 0.0599 | 0.056 | 0.0527 | 0.048 | – | 0.0544 | 0.0503 | 0.0432 | 0.0578 | 0.0488 | 0.0489
19 | I15K | 0.0589 | 0.0521 | 0.0659 | 0.0514 | 0.0656 | – | 0.0572 | 0.0517 | 0.0569 | 0.0463 | 0.0546 | – | – | 0.0743 | 0.0429 | 0.0591 | 0.064 | 0.0412 | 0.0833
20 | I15Q | 0.0524 | 0.058 | 0.0558 | 0.0526 | 0.0686 | 0.058 | 0.0518 | 0.0583 | 0.0552 | 0.0568 | – | 0.0657 | 0.0501 | 0.0485 | 0.0662 | – | 0.0594 | 0.0778 | 0.0628
21 | S17A | 0.0518 | 0.0611 | – | 0.0673 | 0.0662 | – | 0.0416 | 0.0591 | 0.0955 | 0.0579 | 0.0603 | 0.0569 | 0.0675 | 0.0414 | 0.0629 | 0.0498 | – | 0.0702 | 0.0597
22 | I19P | 0.0406 | 0.0396 | 0.044 | 0.0517 | 0.0514 | – | 0.0414 | 0.0432 | 0.0342 | 0.0465 | 0.0549 | 0.0503 | 0.0483 | 0.045 | 0.0411 | 0.0472 | 0.0532 | 0.0487 | 0.0446
